In PubChem BioAssay AID588342 (National Center for Advancing Translational Sciences (NCATS), 2011):
About 25,000 (6.9%) of roughly 360,000 compounds were called active. Inconclusive results, whose numbers are uncertain, are shown with a selection of clear calls. The call rests on the fitted dose curve; in most records, active means well fitted inhibition curve with a large enough effect; inconclusive means small, poorly fitted or top-dose-only effect; inactive means flat fitted curve, though single readings scatter. Potencies beside an inconclusive call are fits to weak or partial responses and may not hold up.
Further: nearly all actives have a fitted effect of over 55% in size.
Potency means the concentration at half of the fitted maximal effect; tags describe the fitted curve by direction and shape.
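Wherever activity change, negative = inhibition is given: plate controls were vehicle for no effect and reference inhibitor for full effect.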

The molecules below were run against Luciferin 4-monooxygenase (Photinus pyralis) (UniProt P08659) (assay: qHTS profiling assay for firefly luciferase inhibitor/activator using purifed enzyme and Km concentrations of substrates (counterscreen for miR-21 project)). Details: purified FLuc, luminescence inhibition; series mostly up to 57.5 µM; activity change, negative = inhibition: at the top concentration.
Chain of UniProt P08659 (P08659 whole entry, looked up): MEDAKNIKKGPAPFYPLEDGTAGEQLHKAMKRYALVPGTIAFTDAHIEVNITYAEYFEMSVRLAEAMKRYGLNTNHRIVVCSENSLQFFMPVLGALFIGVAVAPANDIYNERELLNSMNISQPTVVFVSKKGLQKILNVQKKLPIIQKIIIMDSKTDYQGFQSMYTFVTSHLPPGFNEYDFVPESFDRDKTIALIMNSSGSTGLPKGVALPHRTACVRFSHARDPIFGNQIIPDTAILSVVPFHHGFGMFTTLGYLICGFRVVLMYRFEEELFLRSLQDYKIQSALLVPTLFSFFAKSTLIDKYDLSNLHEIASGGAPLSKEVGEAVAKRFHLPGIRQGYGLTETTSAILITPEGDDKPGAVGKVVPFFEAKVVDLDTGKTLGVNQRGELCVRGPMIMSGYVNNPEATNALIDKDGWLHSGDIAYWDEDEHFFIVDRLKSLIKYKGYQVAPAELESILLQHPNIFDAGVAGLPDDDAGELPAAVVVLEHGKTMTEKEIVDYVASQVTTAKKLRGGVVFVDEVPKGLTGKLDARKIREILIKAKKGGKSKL
In short: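 Biochemical qHTS of compounds, final roughly 60 µM downward over six points, against 10 nM purified firefly luciferase using Km concentrations of substrates (10 uM D-luciferin, 10 uM ATP) in Tris acetate pH 7.5 buffer; luminescence output.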
CCCCCCn1c(=O)c(C(=O)Nc2nc(CC(=O)OCC)cs2)c(O)c2ccccc21 was tested, and the “activity change, negative = inhibition” value was inactive: 1.01%.
With CCc1ccc(-c2nn(Cc3ccccc3)cc2C=O)cc1 the Potency was active: 6.75 µM.
With O=C1NC(=O)N(c2cccc(F)c2)C(=O)/C1=C/c1ccc(N2CCOCC2)cc1 the Potency was inconclusive: 21.3 µM [inhibitor, single point].
For COc1ccc(P2(=O)Nc3ccccc3N2)cc1, the Potency was active: 7.57 µM.
CC(=O)C(Sc1ncnc2c1nnn2-c1ccc(F)cc1)C(=O)N(C)C (stereo not drawn) was tested, and the Potency was inconclusive: 26.9 µM [inhibitor, single point].
For CCN(CC)C(=O)c1ccc(NC(=O)CCn2nc(-c3ccc(Cl)cc3)c3ccccc3c2=O)cc1, the Potency was inconclusive: 15.1 µM [inhibitor, partial curve, poor fit].
For Cc1cccc(C2CC(=O)Oc3c2c(=O)oc2ccccc32)c1 (stereo not drawn), the Potency was inconclusive: 3.38 µM [inhibitor, full curve].
CNC(=O)Nc1ccc(C(=O)N/N=C\C23CC[C@@H](O)CC2(O)CC[C@@H]2[C@@H]3CCC3(C)C(C4=CC(=O)OC4)CCC23O)cc1 (stereo partly drawn) was tested, and the Potency was inconclusive: 23.9 µM [inhibitor, partial curve, poor fit].
With CN1C(=O)NC(=O)/C(=C/c2ccc([N+](=O)[O-])s2)C1=O the Potency was inconclusive: 12 µM [inhibitor, partial curve].
With O=c1[nH]c(=S)n(C2CC2)c(O)c1/C=N/Nc1ccccc1 the Potency was inconclusive: 21.3 µM [inhibitor, partial curve, poor fit].
For CCN(CC)C(=O)c1ccc(NC(=O)COc2ccccc2F)cc1, the Potency was inconclusive: 26.9 µM [inhibitor, partial curve, poor fit].
In the case of O=C(Nc1nc2c(s1)CCCC2)Oc1ccccc1, the Potency was inconclusive: 37.9 µM [inhibitor, single point].
In the case of C/C(=N\OC(=O)NC(C)C)c1sc(-c2ccccc2)nc1C, the Potency was inconclusive: 15.1 µM [inhibitor, partial curve].
COc1ccc(/C=C2\Oc3cc(OC(=O)N4CCOCC4)ccc3C2=O)c(OC)c1 was tested, and the Potency was inconclusive: 8.49 µM [inhibitor, partial curve, poor fit].
For COC(=O)c1ccc(CC(C(=O)c2ccccc2)N(C)C)cc1 (stereo not drawn), the Potency was active: 15.1 µM.
CC1(C)C[C@H]2C=C(C=O)[C@]3(C=O)C[C@]3(C)[C@H]2C1 was tested, and the “activity change, negative = inhibition” value was inactive: 1.28%.
With CCc1ccc(/C=C(/C#N)C(N)=S)cc1 the Potency was inconclusive: 33.8 µM [inhibitor, partial curve, poor fit].
In the case of COP(=O)(OC)/C(C=O)=N/Nc1ccc([N+](=O)[O-])cc1, the Potency was inconclusive: 30.1 µM [inhibitor, partial curve, poor fit].
For Cc1cc(C=C2C(=O)NC(=O)NC2=O)c(C)n1-c1cccnc1, the Potency was inconclusive: 23.9 µM [inhibitor, partial curve].
For N#Cc1c(/N=C/c2c(O)n(Cc3ccco3)c(=O)[nH]c2=O)sc2c1CCCC2, the Potency was inconclusive: 30.1 µM [inhibitor, single point].
In the case of Cn1nc(OC(=O)Nc2ccc(Cl)cc2)cc1C(F)(F)F, the Potency was inconclusive: 30.1 µM [inhibitor, partial curve, poor fit].
C[C@@H]1C2C[C@@]34COC(=O)C3=CC=C[C@H]4[C@@]13C[C@H](c1ccoc1)O[C@@H]3O2 was tested, and the “activity change, negative = inhibition” value was inactive: 4.19%.
In the case of COc1cc(/C=C2/C(=O)NC(=O)N(c3ccccc3)C2=O)ccc1O, the Potency was inconclusive: 26.9 µM [inhibitor, single point].
For COc1ccc(CN2C(=O)NC(=O)/C(=C\c3ccc(OC)c(OC)c3OC)C2=O)cc1, the Potency was inconclusive: 26.9 µM [inhibitor, partial curve].
For CCCCn1c(=O)c(C(=O)NCc2ccc(Cl)cc2)c(O)c2ccccc21, the “activity change, negative = inhibition” value was inactive: 2.65%.
For Cc1c(CCNS(=O)(=O)c2ccccc2)sc2nc(-c3ccc(Cl)cc3)nn12, the Potency was inconclusive: 26.9 µM [inhibitor, partial curve, poor fit].
In the case of CC(NCc1ccc(Cl)cc1Cl)C(O)c1ccccc1 (stereo not drawn), the Potency was inconclusive: 37.9 µM [inhibitor, partial curve, poor fit].
For O=C1c2ccccc2C(=O)c2c1ccc1c(=O)n(-c3ccccc3)[nH]c21, the Potency was inconclusive: 26.9 µM [inhibitor, partial curve, poor fit].
For Cc1ccc(NP(=O)(c2ccccc2)c2nc3ccccc3s2)cc1 (stereo not drawn), the Potency was inconclusive: 33.8 µM [inhibitor, single point].
For CC(=O)Nc1ccccc1C(=O)OCC(=O)c1ccc2c(c1)OCCO2, the Potency was active: 0.757 µM.
CNC(=O)Oc1cccc(-c2cn3cc(Cl)ccc3n2)c1 was tested, and the Potency was active: 2.69 µM.
With O=C1NC(=O)N(c2ccc(Cl)cc2)C(=O)/C1=C\c1ccc(Sc2nc3ccccc3[nH]2)o1 the Potency was inconclusive: 12 µM [inhibitor, single point].
With Cc1c(C(=O)O)cccc1-n1c(C)cc(/C=C2\C(=O)NC(=O)N(c3ccc4c(c3)OCO4)C2=O)c1C the Potency was inconclusive: 37.9 µM [inhibitor, partial curve, poor fit].
CN1CCN(c2ccc([N+](=O)[O-])c3no[n+]([O-])c23)CC1 was tested, and the Potency was inconclusive: 37.9 µM [inhibitor, partial curve, poor fit].
For O=S(=O)(Nc1ccc(-c2nc3ccccc3o2)cc1)c1ccccc1, the Potency was inconclusive: 26.9 µM [inhibitor, single point].
With COc1ccc(N=Cc2c(O)n(C)c(=O)n(C)c2=O)cc1 the Potency was active: 13.5 µM.
For C=CCN1C(=O)/C(=C/c2cc(C)n(-c3cccnc3)c2C)C(=O)NC1=S, the Potency was inconclusive: 16.9 µM [inhibitor, partial curve].
Cc1ccccc1NC(=O)Oc1cccc(OC(=O)c2ccccc2)c1 was tested, and the Potency was inconclusive: 8.49 µM [inhibitor, partial curve].
With O=C(N/N=C/c1c(O)n(Cc2ccccc2)c(=O)[nH]c1=O)c1ccccc1O the Potency was inconclusive: 26.9 µM [inhibitor, single point].
With CCN(CC)C(=O)Oc1ccc2cc(Br)ccc2c1 the Potency was active: 21.3 µM.
For CCCCCn1c(=O)c(C(=O)Nc2ccccc2S(N)(=O)=O)c(O)c2ccccc21, the Potency was inconclusive: 23.9 µM [inhibitor, partial curve, poor fit].
In the case of Cc1ccc(NC(=O)c2cnc3sc(N4CCOCC4)nn3c2=O)cc1N(C)C, the Potency was inconclusive: 16.9 µM [inhibitor, partial curve].
For NS(=O)(=O)c1ccc(NC(=O)Nc2ccccc2)cc1, the Potency was inconclusive: 26.9 µM [inhibitor, single point].
With O=P(O)(O)C#Cc1ccccc1 the Potency was inconclusive: 21.3 µM [inhibitor, single point].
CCC(C)/C=C(C)/C=C/C1=CC2=C(Cl)C(=O)C(C)(OC(C)=O)C(=O)C2=CO1 (stereo not drawn) was tested, and the Potency was active: 21.3 µM.
For COc1ccc(-n2c(O)c(/C=C3\C=Nc4ccc(Br)cc43)c(=O)[nH]c2=O)cc1, the Potency was inconclusive: 26.9 µM [inhibitor, partial curve, poor fit].
In the case of Cc1ccc2c(c1)=C/C(=C\c1c(O)[nH]c(=S)[nH]c1=O)C(=O)N=2, the Potency was inconclusive: 26.9 µM [inhibitor, partial curve, poor fit].
With COc1ccc(/C=C/C(=O)Nc2ccc(C)cc2)cc1 the Potency was active: 6.75 µM.
In the case of CC(C)c1ccc(N=Nc2c(O)[nH]c(=O)[nH]c2=O)cc1, the Potency was active: 2.39 µM.
For COc1ccc(-n2c(-c3ccc(C)cc3)nc3ccccc3c2=O)cc1, the Potency was inconclusive: 21.3 µM [inhibitor, partial curve, poor fit].
CN(C)C(=O)Oc1ccc2c(c1)O/C(=C\c1ccc(Cl)cc1)C2=O was tested, and the Potency was inconclusive: 26.9 µM [inhibitor, single point].
Cc1ccc(S(=O)(=O)CC(=O)c2cc(C)c(OC(=O)N(C)C)c(C)c2)cc1 was tested, and the “activity change, negative = inhibition” value was inactive: -12.3%.
O=P(Nc1cccnc1)(Oc1ccccc1)Oc1ccccc1 was tested, and the “activity change, negative = inhibition” value was inactive: -3.2%.
With O=C(N=Nc1c(O)[nH]c(=O)[nH]c1=O)C1COc2cc3ccccc3cc2O1 (stereo not drawn) the Potency was inconclusive: 30.1 µM [inhibitor, partial curve, poor fit].
With CN1C(=O)N(C)C(=O)C2(Sc3ccccc3C2=O)C1=O the Potency was inconclusive: 37.9 µM [inhibitor, partial curve, poor fit].
In the case of O=C(O)Cn1cc(/C=C2\C(=O)NC(=O)N(c3ccc(F)cc3)C2=O)c2ccccc21, the Potency was inconclusive: 37.9 µM [inhibitor, partial curve, poor fit].
O=C(c1cc2c(s1)CCCCCC2)N1CCC2(CC1)OCCO2 was tested, and the Potency was inconclusive: 21.3 µM [inhibitor, partial curve, poor fit].
In the case of Cc1cc(C)cc(Oc2nc3ccccn3c(=O)c2/C=C(\C#N)c2nc3ccccc3s2)c1, the Potency was inconclusive: 8.49 µM [inhibitor, partial curve].
O=C(N/N=C/c1c(O)n(Cc2ccc(F)cc2)c(=O)[nH]c1=O)c1ccccc1O was tested, and the Potency was inconclusive: 30.1 µM [inhibitor, partial curve, poor fit].
O=C1NC(=O)N(c2ccccc2F)C(=O)/C1=C/c1cn(CC(=O)N2CCOCC2)c2ccccc12 was tested, and the Potency was inconclusive: 21.3 µM [inhibitor, partial curve].
O=C(COc1ccccc1Cl)N1CCCC(N2CCN(c3ccc(F)cc3)CC2)C1 (stereo not drawn) was tested, and the “activity change, negative = inhibition” value was inactive: -0.202%.
With COc1ccc(C(=O)C(Cc2ccccc2)N(C)C)cc1 (stereo not drawn) the “activity change, negative = inhibition” value was inactive: -16.7%.
With Cc1nn(Cc2ccccc2)c(C)c1C=C1C(=O)NC(=S)NC1=O the Potency was inconclusive: 21.3 µM [inhibitor, partial curve, poor fit].
